From article PMC6212790
The list shows a part of the results. At the low end of the ranking, values are background and their order means little.

Biological target: T1, GST-Rok-C97-191 (UniProt O34857)
T1 sequence: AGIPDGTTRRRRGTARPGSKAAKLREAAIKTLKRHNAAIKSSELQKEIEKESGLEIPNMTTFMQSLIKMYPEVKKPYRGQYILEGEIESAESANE
Test: protein binding microarray;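 further: rank score from −0.5 (least bound) to 0.5 (best bound)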
Details: Rok is a gene silencer of Bacillus subtilis; high values mean tight binding; most listed sequences are background and not binding sites; double strand, one strand shown

Sequence | binding signal
ACTGATGG | -0.176 E-score
GGGTCTCA | -0.222 E-score
CCAGTCTC | -0.14 E-score
ATTTGGGC | 0.0587 E-score
CAGGATGG | -0.0625 E-score
CAATACCG | 0.121 E-score
ACGTTGGC | -0.187 E-score
CACGAAAC | 0.146 E-score
CGGCGTAA | -0.0586 E-score
TGCCCCCA | -0.303 E-score
CGTAGCCC | -0.128 E-score
CAAACAGC | -0.206 E-score
GCGGGGTA | -0.137 E-score
CCCTCGTC | -0.23 E-score
CGTACTCC | -0.232 E-score
AATCAAGA | 0.0438 E-score
GGTGGTCA | -0.312 E-score
AAGGAACA | -0.0989 E-score
ACCCATAC | 0.107 E-score
ACACTATG | 0.237 E-score
CGCGCTAA | 0.329 E-score
ATAAGATG | -0.0116 E-score
CAATTTGG | -0.0196 E-score
CATCTCCC | -0.194 E-score
ATGCCGCG | -0.151 E-score

Sequence | binding signal
CTCTGCTA | -0.145 E-score
CACCGTGG | -0.246 E-score
CTTCTAGA | -0.0324 E-score
AGATCCCG | 0.129 E-score
CATCACGC | -0.168 E-score
ACTAAAAA | 0.26 E-score
CAAATTCG | 0.0315 E-score
CCACGTCC | -0.259 E-score
CCCGGGAG | -0.222 E-score
AATATGGG | 0.0369 E-score
ACTATAGC | 0.207 E-score
AGTGTCGA | 0.0223 E-score
AACCCGAC | -0.183 E-score
ACCCTGTA | 0.0602 E-score
AACACCCT | -0.0153 E-score
CTCTGCCC | -0.27 E-score
CCCTTGCC | -0.364 E-score
ATCAGTGG | -0.0342 E-score
ACAAAATG | 0.0786 E-score
AAAGATGG | 0.0619 E-score
CATACACA | 0.12 E-score
ACGGGCCG | -0.271 E-score
ATGTGGAC | 0.115 E-score
TAACTAAA | 0.23 E-score
GACCTCAA | -0.241 E-score

Sequence | binding signal
GTCTGCAA | -0.144 E-score
AAGGGAAT | -0.106 E-score
ACCTGATA | 0.0129 E-score
GATGGCAC | -0.173 E-score
CCGTTAGC | -0.185 E-score
AGCAAACG | 0.0529 E-score
GATGTAAA | 0.164 E-score
GACAATCC | -0.047 E-score
AGCCTTAA | -0.125 E-score
CCTAAAAA | 0.11 E-score
GAATGCTA | 0.131 E-score
GTTAGTCA | -0.00135 E-score
ACATCCCG | -0.0956 E-score
ACTCAGCA | -0.00317 E-score
ACTTAAGC | -0.0144 E-score
GAGGAAAA | -0.0709 E-score
CCTATGCG | -0.247 E-score
AATCAGAC | -0.0483 E-score
ACATACCA | 0.237 E-score
GGCATAAC | -0.00834 E-score
CACGATCA | -0.0988 E-score
AGGGATGG | -0.218 E-score
CAGCAAGC | -0.224 E-score
CTTCATTC | -0.025 E-score
CCAACTTA | 0.00496 E-score

Sequence | binding signal
GGCACTTA | -0.0815 E-score
GCCTGAAC | -0.187 E-score
GGTGGCGA | -0.0613 E-score
CGCATTAC | 0.0403 E-score
CCCATCGA | -0.219 E-score
CAGAAGAA | 0.0124 E-score
CATCTCAG | -0.0918 E-score
GATTGCGC | -0.0915 E-score
AGACAACG | -0.0922 E-score
ACAGGGGA | -0.24 E-score
CATGGGAA | -0.129 E-score
ACCCCCAC | -0.292 E-score
AGGCCTAT | -0.0591 E-score
ATATCGTG | 0.119 E-score
CAATTGAC | 0.132 E-score
CCGTCGCA | -0.28 E-score
ACGCCTCG | -0.194 E-score
ACTGGAGC | -0.231 E-score
CGAGTACC | -0.0938 E-score
CGGGGCCC | -0.321 E-score
TGGCAGAA | -0.0188 E-score
ATGGCGGC | -0.268 E-score
ATCCCTAG | -0.0443 E-score
CACAGGAC | -0.113 E-score
CTCCCGGC | -0.174 E-score

Sequence | binding signal
ATAGATGG | 0.192 E-score
AGAGCCAA | -0.0861 E-score
ACACTGCC | -0.236 E-score
ATAACATC | 0.00847 E-score
AGGGCCAG | -0.0808 E-score
ACACTAGA | 0.179 E-score
CAAGAGTG | 0.0414 E-score
GCCCGTAC | -0.243 E-score
GCAGTCGC | -0.288 E-score
CCCGCGGA | -0.25 E-score
CAGTTCGC | -0.261 E-score
AATACACT | 0.155 E-score
GACGTCGC | -0.132 E-score
GTCTCTTA | -0.165 E-score
AACGCCTG | -0.256 E-score
CATATCGA | 0.0885 E-score
CCGGCAGC | -0.146 E-score
AAGTCTCA | -0.248 E-score
GACCTTAC | -0.062 E-score
ATTTAAAA | -0.0263 E-score
TAGGGGCA | -0.0802 E-score
AATTGTTC | 0.273 E-score
CTGAAAGA | 0.00993 E-score
CTTTGCCC | -0.0468 E-score
CACAGGCC | -0.171 E-score

Sequence | binding signal
ATCTGCTA | 0.108 E-score
GGATGTAC | 0.275 E-score
AAATCGCC | 0.0495 E-score
ACTCGACG | -0.0801 E-score
CTCCGGAG | -0.127 E-score
ACAACCTC | -0.00502 E-score
CCTATGAC | 0.091 E-score
ATATAGCA | 0.3 E-score
CCATTCGA | 0.0586 E-score
CGGTGCAG | -0.0983 E-score
CAACTGAG | -0.0688 E-score
ACCCGACA | -0.156 E-score
CCTCAATC | -0.119 E-score
ACGGAGGC | -0.287 E-score
AAACCTTA | -0.00919 E-score
AGCTAAAT | 0.23 E-score
ATCAAAGG | -0.041 E-score
GTTATTTA | 0.273 E-score
ATCGCCAA | 0.00102 E-score
AATGCATC | 0.0583 E-score
CGTATTTA | 0.318 E-score
ATTAACAA | 0.268 E-score
GAGCTTAC | -0.189 E-score
AAAGAAGG | -0.184 E-score
AAGTGCGT | -0.117 E-score

Sequence | binding signal
CCAGTATC | -0.0604 E-score
ACCCCTAG | -0.0165 E-score
CGCGGCTA | -0.127 E-score
CAGAACCA | -0.0109 E-score
CGATTGCG | -0.0899 E-score
ATTATTAG | 0.325 E-score
TAATTATA | 0.386 E-score
CAAAGTTG | -0.153 E-score
GAAGAAAA | -0.109 E-score
CGGCAATC | -0.0976 E-score
TCGCGTAA | 0.0815 E-score
AAGTGATT | -0.0378 E-score
GTTCGCTA | 0.172 E-score
CACGTGAC | -0.221 E-score
ATCAGCAG | -0.0269 E-score
AGCATACT | 0.12 E-score
GATCCTTA | -0.132 E-score
TGTTTAAA | 0.0959 E-score
ACAAATTG | 0.0672 E-score
AACGGAGC | -0.0688 E-score
CAGTGCGC | -0.0706 E-score
GGGGAAAA | -0.0211 E-score
